Results published in the supplement of paper PMC12217912.
This is one part of the list. Sequences were assembled here from the parent chain. Values near 0.05 are background.

B1: TEV protease; numbered along this chain (parent)
chain: MGESLFKGPRDYNPISSSICHLTNESDGHTTSLYGIGFGPFIITNKHLFRRNNGTLVVQSLHGVFKVKDTTTLQQHLVDGRDMIIIRMPKDFPPFPQKLKFREPQREERICLVTTNFQTKSMSSMVSDTSCTFPSGDGIFWKHWIQTKDGQCGSPLVSTRDGFIVGIHSASNFTNTNNYFTSVPKNFMELLTNQEAQQWVSGWRLNADSVLWGGHKVFMVKPEEPFQPVKEATQL

Variants of: B1
Assay: raw area under fraction-flipped curve 0-4 h after induction (AUC4h, not background-subtracted), DNA-recorder readout of cleavage of the substrate (dimensionless); higher = more cleavage of the substrate by the protease variant
Conditions: temperature: 34 °C; time window: 0-4 h after rhamnose induction
Experimental: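 In vivo DNA recorder in E. coli TOP10(DE3) ΔrhaA at 34 °C. Each TEVp single-site mutant (parent TEVp 0) is paired with a single-site variant of the 7-mer TEVs (canonical ENLYFQ|S). The substrate sits between flexible linkers in a Bxb1-sfGFP-TEVs-SsrA fusion, so cleavage stabilises Bxb1 and speeds flipping of a recombination array, read by NGS. The value is the raw area under the fraction-flipped curve over 0-4 h after rhamnose induction (AUC4h), with ≥20 reads per time point. It is not background-subtracted; inactive controls average about 0.047.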
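Note: Bxb1 expression induced with 0.2% (w/v) L-rhamnose at OD600 near 0.5, cultures sampled hourly, flipped fraction per protease–substrate barcode pair counted by paired-end Illumina sequencing.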

Variant	area with substrate ENLYFAS	area with substrate ENLYFDS	area with substrate ENLYFFS	area with substrate ENLYFGS	area with substrate ENLYFHS	area with substrate ENLYFIS	area with substrate ENLYFKS	area with substrate ENLYFLS	area with substrate ENLYFMS	area with substrate ENLYFNS	area with substrate ENLYFPS	area with substrate ENLYFRS	area with substrate ENLYFSS	area with substrate ENLYFTS	area with substrate ENLYFVS	area with substrate ENLYFYS	area with substrate ENLYFCS	area with substrate ENLYFWS	area with substrate ENLYFES
MGESLFKGPRDYNPISSSICHLTNESDGHTTSLYGIGFGPFIITNKHLFRRNNGTLVVQSLHGVFKVKDTTTLQQHLVDGRDMIIIRMPKDFPPFPQKLKFREPQREERICLVTTNFQTKSMSSMVSDTSCTFPSGDGIFWKHWIQTKDGQCGSPLVSTRDGFIVGIHSASNFTNTNNYFRSVPKNFMELLTNQEAQQWVSGWRLNADSVLWGGHKVFMVKPEEPFQPVKEATQL [T181R]	0.0639	0.0622	0.0626	0.0537	0.054	0.0467	0.0547	0.0557	0.043	0.0702	0.052	0.0364	0.0406	0.0525	0.0138	0.0346	–	–	–
MGESLFKGPRDYNPISSSICHLTNESDGHTTSLYGIGFGPFIITNKHLFRRNNGTLVVQSLHGVFKVKDTTTFQQHLVDGRDMIIIRMPKDFPPFPQKLKFREPQREERICLVTTNFQTKSMSSMVSDTSCTFPSGDGIFWKHWIQTKDGQCGSPLVSTRDGFIVGIHSASNFTNTNNYFTSVPKNFMELLTNQEAQQWVSGWRLNADSVLWGGHKVFMVKPEEPFQPVKEATQL [L73F]	0.0595	–	0.0625	0.0698	–	0.0538	0.0562	0.0543	0.07	–	–	0.0487	0.0426	–	–	0.0544	0.0536	0.0721	–
MGESLFKGPRDYNPISSSICHLTNESDGHTTSLYGIGFGPFIITNKHLFRRNNGTLVVQSLHGVFKVKDTTTLQQHLVDGRDMIIIRMPKDFPPFPQKLKFREPQREERICLVTTNFQTKSMSSMVSDTSCTFPSGDGIFWKHWIQTKDGQCGSPLVSTRDGFIVGIHSASNFTNTNNYFTQVPKNFMELLTNQEAQQWVSGWRLNADSVLWGGHKVFMVKPEEPFQPVKEATQL [S182Q]	0.0572	–	0.0608	–	0.058	0.05	0.0532	–	0.0558	–	0.0583	–	–	–	0.0508	0.057	0.0547	0.0441	0.0579
MGESLFKGPRDYNPISSSICHLTNESDGHTTSLYGIGFGPFIITNKHLFRRNNGTLVVQSLHGVFKVKDTTTLQQHLVDGRDMIGIRMPKDFPPFPQKLKFREPQREERICLVTTNFQTKSMSSMVSDTSCTFPSGDGIFWKHWIQTKDGQCGSPLVSTRDGFIVGIHSASNFTNTNNYFTSVPKNFMELLTNQEAQQWVSGWRLNADSVLWGGHKVFMVKPEEPFQPVKEATQL [I85G]	0.0507	0.053	0.0617	–	0.0409	0.0533	0.0628	–	0.051	–	0.0594	0.0434	–	0.0564	0.0424	–	0.0076	–	0.0514
MGESLFKGPRDYNPISSSICHLTNESDGHTTSLYGIGFGPFIITNKHLFRRNNGTLVVQSLHGVFKVKDTTTLQQHLVDGRDMIIIRMPKDFPPFPQKLKFREPQREERICLVTTNFQTKSMSSMVSDTSCTFPSGDGIFWKHWIQTKDGQCGSPLVWTRDGFIVGIHSASNFTNTNNYFTSVPKNFMELLTNQEAQQWVSGWRLNADSVLWGGHKVFMVKPEEPFQPVKEATQL [S158W]	0.0566	0.0383	0.0622	0.0506	0.051	0.0496	0.0388	–	0.0505	0.0392	0.0473	0.0519	0.0365	0.0503	0.0515	0.0427	0.0444	0.0501	0.0518
MGESLFKGPRDYNVISSSICHLTNESDGHTTSLYGIGFGPFIITNKHLFRRNNGTLVVQSLHGVFKVKDTTTLQQHLVDGRDMIIIRMPKDFPPFPQKLKFREPQREERICLVTTNFQTKSMSSMVSDTSCTFPSGDGIFWKHWIQTKDGQCGSPLVSTRDGFIVGIHSASNFTNTNNYFTSVPKNFMELLTNQEAQQWVSGWRLNADSVLWGGHKVFMVKPEEPFQPVKEATQL [P14V]	0.0666	0.0537	0.0642	0.0569	0.066	0.0579	0.0557	–	0.0714	0.0599	0.0679	0.0705	0.0634	0.0615	0.0541	0.045	0.0738	0.0551	0.0618
MGESLFKGPRDYNPISSSICHLTNESDGHTTSLYGIGFGPFIITNKHLFRRNNGTLVVQSLHGVFKVKDTTTLQQHLVDGRDMIIIRMPKDFPPFPQKLKFREPQREERICLVTTNFQTKSMSSMVSDTSCTFPSGDGIFWKHWIQTKDGQCGSPLVSTRDGFIVGIHSASNFTNTNNWFTSVPKNFMELLTNQEAQQWVSGWRLNADSVLWGGHKVFMVKPEEPFQPVKEATQL [Y179W]	0.0568	0.0517	0.0615	–	0.0562	0.0387	–	–	0.0452	0.052	–	–	0.0468	0.0578	–	–	–	0.0704	–
MGESLFKGPRDYNPISSSICHLTNESDGHTTSLYGIGFGPFIITNKHLFRRNNGTLVVQSLHGVFKVKDTTTLQQHLVDGRDMIIIRMPKDFPPFPQKLKFREPQREERICLVTTNFQTKSMSSMVSDTSCTFPSGDGIFWKHWIQTKDGQCGSPLVSTRDGFIVGIHSASNFTNTNNYFTSVPKNFMELLTNQEAQQWVSGWRDNADSVLWGGHKVFMVKPEEPFQPVKEATQL [L205D]	0.0525	–	–	–	0.0739	0.0979	0.0589	–	0.058	–	0.126	–	–	0.0491	–	–	0.0601	0.0667	–
MGESLFKGPRDYNPISSSICHLTNESDGHTTSLYGIGFGPFIITNKHLFRRNNGTLVVQSLHGVFKVKDTTTLQQHLVDGRDMIIIRMPKDFPPFPQKLKFREPQREERICLVTTNFQTKSMSSMVSDTSCTFPSGDGIFWKHWIQTKDGQCGSPLVSTRDGFIVGIHSASNFTNTNNYFTSVPKNFMECLTNQEAQQWVSGWRLNADSVLWGGHKVFMVKPEEPFQPVKEATQL [L190C]	0.0541	–	–	–	–	0.053	0.0339	–	0.0739	0.0512	–	–	0.0687	–	0.0476	–	0.0589	–	0.0595
